From PubChem BioAssay AID1347428 (National Center for Advancing Translational Sciences (NCATS), 2020)
The campaign covered roughly 91,000 compounds. About 290 (0.32%) were called active. The inconclusive results got no clear call from the source; some entries with a clear call stand among them for comparison. Calls come from the whole dose curve; as a rule, active = well fitted inhibition curve with a large enough effect; inconclusive = small, poorly fitted or top-dose-only effect; inactive = no such curve, though single readings can be large or run the other way. A potency beside an inconclusive call is a rough fit, not a confirmed value.

Target: Single-stranded DNA cytosine deaminase (Homo sapiens) (UniProt Q9GZX7)
Test: Primary qHTS assay for inhibitors of Activation Induced Cytidine Deaminase (AID): AID signal; note: nearly all actives have a fitted effect of over 25% in size
Conditions: AID deamination FRET fluorescence, UDG-coupled, 4 h; series mostly up to 115 µM
Potency is the fitted concentration of half-maximal effect; tags give direction and shape of the fitted curve.

UniProt Q9GZX7, sequence (Q9GZX7 whole entry, looked up): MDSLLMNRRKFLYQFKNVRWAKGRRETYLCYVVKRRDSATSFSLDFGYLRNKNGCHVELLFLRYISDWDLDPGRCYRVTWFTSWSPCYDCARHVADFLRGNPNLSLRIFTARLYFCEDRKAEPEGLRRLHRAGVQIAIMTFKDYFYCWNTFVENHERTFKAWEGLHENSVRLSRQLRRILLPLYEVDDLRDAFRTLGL

| Compound | Potency |
| --- | --- |
| CCOc1ccc(-n2c(-c3ccc(Br)cc3)cc3c2CC(C)(C)CC3=O)cc1 | inconclusive: 20 µM [inhibitor, full curve, poor fit] |
| COc1ccc(C(CC(=O)c2ccco2)SCCO)cc1OC (stereo unspecified) | inactive |
| c1cn(CCCNCC2CCCCC2)cn1 | inactive |
| CCCOc1ccc(C(=O)N(Cc2ccc(Cl)cc2)Cc2ccco2)cc1 | inconclusive: 25.1 µM [inhibitor, partial curve, poor fit] |
| Cc1cccc(N(C)C(=O)C2CCC(CNS(=O)(=O)c3cccc4nsnc34)CC2)c1 (stereo unspecified) | inconclusive: 28.2 µM [inhibitor, single point] |
| COc1ccc(-c2csc3ncnc(Nc4ccc(OC)cc4OC)c23)cc1 | inconclusive: 56.2 µM [inhibitor, partial curve, poor fit] |
| Cc1cc(NC(=O)c2cnn(-c3ccccc3)c2-n2cccc2)ccc1Br | inconclusive: 50.1 µM [inhibitor, partial curve, poor fit] |
| Cn1c(C(=O)NCc2ccccc2Cl)cc2sc(Cl)cc21 | inconclusive: 39.8 µM [inhibitor, partial curve, poor fit] |
| Cc1nc(-c2cccc(F)c2)sc1CCNC(=O)Cc1ccc(F)cc1 | inactive |
| CCCSC1=NC2(CCN(C(=O)NC3CCCCC3)CC2)N=C1c1ccc(OC)cc1 | inconclusive: 28.2 µM [inhibitor, single point] |
| COc1ccc(NC(=O)C(C)Oc2cccc(C)c2C)c2cccnc12 (stereo unspecified) | inactive |
| O=C(NCc1ccccc1Cl)c1ccc2c(c1)ncn2-c1cccc(F)c1 | inconclusive: 44.7 µM [inhibitor, partial curve] |
| COc1cccc(-n2ccnc2SCC(=O)Nc2cccc3ccccc23)c1 | inconclusive: 17.8 µM [inhibitor, full curve, poor fit] |
| Cc1ccc(C)c(CN2CCC(CNC(=O)C(CC(C)C)N3Cc4ccccc4C3=O)CC2)c1 (stereo unspecified) | inconclusive: 28.2 µM [inhibitor, full curve] |
| Cc1ccc(CNC(=O)C2CCCN(c3nc4ccccc4n4cccc34)C2)cc1 (stereo unspecified) | active: 79.4 µM |
| CC(C(=O)NCc1ccc(Cl)cc1)n1ccc2cc(S(=O)(=O)N3CCCCCC3)ccc21 (stereo unspecified) | inconclusive: 22.4 µM [inhibitor, full curve, poor fit] |
| c1ccc(CSc2nc3ccccc3s2)cc1 | inactive |
| CCCN(CCC)CC(O)Cn1cc(/C=C/C(=O)c2ccc(C)cc2)c2ccccc21 (stereo unspecified) | active: 35.5 µM |
| CCCCN(CC)C(=O)CSc1nc2n[nH]c(C)c2c(=N)n1-c1cccc(OC)c1 | inconclusive: 79.4 µM [inhibitor, partial curve, poor fit] |
| O=C(O)/C(=C\C=C\c1ccco1)NC(=O)c1ccccc1 | inactive |
| Cc1oc(-c2ccc(Cl)cc2)nc1CS(=O)CC(=O)N1CCN(c2cccc(C(F)(F)F)c2)CC1 (stereo unspecified) | inconclusive: 28.2 µM [inhibitor, full curve, poor fit] |
| COc1ccccc1CNC(=O)CCn1nc(C)c2c(C)n(-c3ccccc3)nc2c1=O | inconclusive: 89.1 µM [inhibitor, partial curve, poor fit] |

| Compound | Potency |
| --- | --- |
| CCCNC(=O)C1CCC(Cn2c(=O)c3sccc3n(Cc3ccccc3F)c2=O)CC1 (stereo unspecified) | inactive |
| Fc1ccc(CNc2ncnc3onc(-c4ccc(F)cc4)c23)cc1 | inconclusive: 79.4 µM [inhibitor, partial curve, poor fit] |
| O=C(C1COc2ccccc2O1)N1CCN(c2nc3ccc(F)cc3s2)CC1 (stereo unspecified) | inactive |
| CSC1=NC2(CCN(C(=O)NC3CCCCC3)CC2)N=C1c1ccc(C)cc1 | inconclusive: 39.8 µM [inhibitor, single point] |
| Cc1cc(CSc2nnc(-c3ccc(Cl)cc3)n2Cc2ccco2)on1 | inactive |
| CC(C)CN(CCCNC(=O)CN1N=C(c2ccc(Cl)cc2)CCC1=O)CC(C)C | inconclusive: 100 µM [inhibitor, single point] |
| COc1ccc(NC(=O)c2ccccc2NC(=O)CSc2ncnc3ccccc23)cc1 | inactive |
| COc1ccc2c(c1)c(C(C(=O)O)N1CCC(C(=O)O)CC1)cn2CC(=O)O (stereo unspecified) | inactive |
| CCC(Oc1ccccc1F)C(=O)N1CCC(c2nc3ccccc3s2)CC1 (stereo unspecified) | inconclusive: 44.7 µM [inhibitor, full curve, poor fit] |
| COc1ccccc1Cn1cc(C(=O)c2ccc(C)cc2)c(=O)c2cc(C)ccc21 | inconclusive: 15.8 µM [inhibitor, full curve, poor fit] |
| N#Cc1ccc(CNc2ccccc2Cl)cc1 | inactive |
| CCOc1ccccc1CNC(=O)Cn1cc2c(n1)-c1c(oc(C(=O)N3CCCC3)c1C)CC2 | inconclusive: 70.8 µM [inhibitor, partial curve, poor fit] |
| COc1ccc(N2CCN(Cc3cccn3-c3nnc(N4CCN(C5CCCCC5)CC4)s3)CC2)cc1 | inconclusive: 50.1 µM [inhibitor, partial curve, poor fit] |
| COc1ccc(NC(=O)c2ccco2)cc1NC(=O)COc1ccc(Cl)c(C)c1 | inconclusive: 3.55 µM [inhibitor, full curve, poor fit] |
| Cc1ccc(NC(=O)N2CC3CCCN3c3ccccc32)c(C)c1 (stereo unspecified) | inconclusive: 39.8 µM [inhibitor, partial curve, poor fit] |
| Cc1ccc(Cl)cc1-n1ncc2c(NCCCc3ccccc3)ncnc21 | inconclusive: 79.4 µM [inhibitor, single point] |
| CCc1nonc1NC(=O)c1oc2ccc(C)cc2c1C | inactive |
| CCOC(=O)c1c(NC(=O)CSc2cn(CCNC(=O)c3ccc(OC)c(OC)c3)c3ccccc23)sc2c1CCCC2 | inconclusive: 89.1 µM [inhibitor, single point] |
| O=C(CSc1ncnc2ccccc12)Nc1ccc(F)cc1 | inactive |
| C=CCNc1nc(-c2cc(C)n(-c3c(C)n(C)n(-c4ccccc4)c3=O)c2C)cs1 | inactive |
| CCOC(=O)N1CCN(C(=O)CN(c2cccc(Cl)c2)S(=O)(=O)c2ccccc2)CC1 | inconclusive: 89.1 µM [inhibitor, single point] |
| CCOC(=O)c1ccc(N2C(=O)c3[nH]nc(-c4ccc(OC)cc4)c3C2c2ccccc2Cl)cc1 (stereo unspecified) | inactive |

| Compound | Potency |
| --- | --- |
| O=C(O)c1cccc(Nc2ncnc3ccc(Br)cc23)c1 | inconclusive: 89.1 µM [inhibitor, partial curve, poor fit] |
| Cc1ccc2c(c1)N(S(=O)(=O)c1cc(-c3onc(C)c3C)ccc1C)CCO2 | inconclusive: 50.1 µM [inhibitor, partial curve, poor fit] |
| O=C1c2[nH]nc(-c3ccccc3O)c2C(c2cccc(O)c2)N1Cc1ccncc1 (stereo unspecified) | inconclusive: 20 µM [inhibitor, single point] |
| C=CCOc1ccc(/C=C/c2cc(C(=O)O)c3ccccc3n2)cc1OC | inactive |
| CN(C)CCCNC(=O)CNc1nc(Cl)nc2nc[nH]c12 | inactive |
| Cc1cccc(N2CCN(c3ccc(C(=O)O)cc3NC(=O)c3cccc(Cl)c3)CC2C)c1 (stereo unspecified) | inconclusive: 89.1 µM [inhibitor, partial curve, poor fit] |
| COc1ccc(-c2cn3nc(N4CCCC(C(=O)Nc5ccccc5OC)C4)sc3n2)cc1 (stereo unspecified) | inconclusive: 56.2 µM [inhibitor, partial curve, poor fit] |
| N#Cc1c(NC(=O)CCn2nnc(-c3cccc(Cl)c3)n2)sc2c1CCCC2 | inactive |
| Fc1nc(F)c(F)c(Sc2nc3ccccc3s2)c1F | inactive |
| COC(=O)c1sc(N2C(=O)C(=O)/C(=C(/O)c3ccc(C)c(F)c3)C2c2ccccc2F)nc1C (stereo unspecified) | active: 79.4 µM |
| CCn1c(C)c(C)c2cc(C(=O)NCc3ccc(OC(C)C)cc3)ccc21 | inconclusive: 44.7 µM [inhibitor, full curve, poor fit] |
| COc1cc2c(C(=O)N3CCN(c4cccc(C(F)(F)F)c4)CC3)cn(CC(C)C)c(=O)c2cc1OC | inconclusive: 17.8 µM [inhibitor, full curve, poor fit] |
| COc1ccc(OCC(=O)N(Cc2cccs2)c2ccc(OC)cc2)cc1 | inconclusive: 50.1 µM [inhibitor, partial curve, poor fit] |
| O=C(CCSCc1cccc(Cl)c1)NCc1ccc(F)cc1Cl | inconclusive: 17.8 µM [inhibitor, full curve] |
| CC1Cn2c(C(=O)NCc3cccc(Br)c3)cc3cccc(c32)S1 (stereo unspecified) | inconclusive: 14.1 µM [inhibitor, full curve, poor fit] |
| CCCN1CCN(c2cc3c(cc2F)c(=O)c(S(=O)(=O)c2ccc(CC)cc2)cn3CC)CC1 | inconclusive: 56.2 µM [inhibitor, partial curve, poor fit] |
| Cc1cccc(CCNC(=O)c2ccc(CSCc3cccc(Cl)c3)o2)c1 | inconclusive: 35.5 µM [inhibitor, partial curve] |
| C=CCn1c(SCc2coc(-c3ccc(F)cc3)n2)nnc1C1CCS(=O)(=O)C1 (stereo unspecified) | inactive |
| N#CC1=C2SCN(C3CCCCC3)CN2C(=O)CC1c1c(F)cccc1Cl (stereo unspecified) | inconclusive: 39.8 µM [inhibitor, full curve, poor fit] |
| COc1ccc(Cn2c(CO)cnc2SCc2ccc(F)cc2)cc1 | inconclusive: 100 µM [inhibitor, partial curve, poor fit] |
| CCOC(=O)c1ccc(-c2ccc(/C=C(\C#N)c3nc4ccc(C)cc4[nH]3)o2)cc1 | inconclusive: 50.1 µM [inhibitor, partial curve, poor fit] |
| CCc1ccc(C(=O)Nc2sc(C)c(C)c2C#N)cc1 | inactive |
